Assay results published in PubChem BioAssay AID488969 (Vanderbilt High Throughput Screening Facility, 2010).
Whole data set: some 110,000 compounds, median “z-score” near -0.1, cut for the highest 2% near 2. The list shows a part of the results.

Target: Metabotropic glutamate receptor 8 (Rattus norvegicus) (UniProt P70579)
Assay: rat mGluR8 modulators via GIRK flux, primary screen, cell-based, thallium flux, HTS (AID 488969)
Conditions: HEK293 rat mGluR8, GIRK (G protein-gated inwardly rectifying potassium channel) thallium flux, FluoZin2; at 10 µM; stronger effect = higher value; submaximal glutamate (EC20) added with thallium

Chain of UniProt P70579 (P70579 whole entry, looked up): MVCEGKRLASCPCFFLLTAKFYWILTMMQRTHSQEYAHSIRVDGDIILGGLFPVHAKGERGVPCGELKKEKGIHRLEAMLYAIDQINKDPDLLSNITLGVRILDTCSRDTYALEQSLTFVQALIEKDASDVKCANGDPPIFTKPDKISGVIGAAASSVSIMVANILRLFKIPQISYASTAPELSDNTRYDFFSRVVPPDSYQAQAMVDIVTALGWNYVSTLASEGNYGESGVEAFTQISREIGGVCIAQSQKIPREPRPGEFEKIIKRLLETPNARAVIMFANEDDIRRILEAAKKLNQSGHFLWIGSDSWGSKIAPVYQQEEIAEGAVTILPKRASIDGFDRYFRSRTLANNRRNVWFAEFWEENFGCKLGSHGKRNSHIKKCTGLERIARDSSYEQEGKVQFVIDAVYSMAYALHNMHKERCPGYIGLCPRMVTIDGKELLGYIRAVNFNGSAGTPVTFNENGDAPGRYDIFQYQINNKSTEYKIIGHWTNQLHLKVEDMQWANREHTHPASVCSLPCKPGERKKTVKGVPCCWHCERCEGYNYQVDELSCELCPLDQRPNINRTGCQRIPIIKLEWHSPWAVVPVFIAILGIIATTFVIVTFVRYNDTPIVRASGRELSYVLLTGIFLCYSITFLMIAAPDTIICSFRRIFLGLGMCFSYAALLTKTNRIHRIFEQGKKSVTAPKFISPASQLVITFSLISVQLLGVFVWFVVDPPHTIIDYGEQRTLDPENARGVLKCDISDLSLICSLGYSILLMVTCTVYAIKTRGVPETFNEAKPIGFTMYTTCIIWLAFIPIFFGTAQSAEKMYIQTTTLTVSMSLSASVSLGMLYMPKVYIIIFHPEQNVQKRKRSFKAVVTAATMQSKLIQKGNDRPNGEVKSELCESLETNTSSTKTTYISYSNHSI

SMILES	z-score
Cc1cc(SCC(=O)NN=C2CCN(C(C)C)CC2)c(C)cc1Br	-0.257
Cc1onc(-c2ccccc2)c1C(=O)N1CCCSC1=Nc1ccccc1	-0.384
O=C(NCc1ccc2c(c1)OCO2)C1CCCN1C(=O)Nc1cccc(Cl)c1 (configuration not stated)	-0.268
CC1(C)CC(=O)C(C(c2ccncc2)C2C(=O)CC(C)(C)CC2=O)C(=O)C1	-0.21
CN1CCN(c2nc(-c3ccncc3)nc3ccccc23)CC1	0.0796
CC(C)(C)NC(=O)C(=O)N/N=C/c1ccc(Br)cc1	-0.109
Brc1cc2c(cc1/C=N/Nc1nc(N3CCOCC3)nc(N3CCOCC3)n1)OCO2	-0.639
CSc1cccc(NC(=O)CSc2ccc(Cl)cc2)c1	0.0929
Cc1cccc(C)c1NC(=O)C(NC=O)c1ccccc1Cl (configuration not stated)	0.171
COc1ccc(OCC(=O)Nc2ccccc2C(=O)N2CCCC2)cc1	-0.288
Cc1cc(-c2c(C)[nH]n(-c3ccc(Cl)cc3)c2=O)n(-c2ccccc2)n1	0.122
CC1CCc2nn(CC(=O)NCCN3CCOCC3)cc2C1 (configuration not stated)	0.4
O=[N+]([O-])c1ccc2c(c1)oc1ccccc12	0.356
CCN(CC)CCN1C(=O)C(=O)/C(=C(/O)c2ccc(C)cc2)C1c1ccncc1 (configuration not stated)	0.189
CS(=O)(=O)N1CCN(c2ccc(C(=O)NC3C4CC5CC(C4)CC3C5)cc2[N+](=O)[O-])CC1 (configuration not stated)	-0.165
Cc1ccc(S(=O)(=O)/N=C2/C=C(Sc3ncn[nH]3)C(=O)c3ccccc32)c(C)c1	-0.256
CCCNC1=C(N(C(C)=O)c2cccc(F)c2)C(=O)c2ccccc2C1=O	-1.55
Cc1ccc(N=c2ssnc2Cl)cc1	0.0301
CC1CN(C(=O)C2(C)CC2(Br)Br)CC(C)O1 (configuration not stated)	-0.00911
Cc1c(CNC2CCC(C)CC2)c(C(=O)O)c(C)n1Cc1ccccc1 (configuration not stated)	-0.344
O=C(O)c1cc(NS(=O)(=O)c2ccc(N3CCCCC3)c([N+](=O)[O-])c2)cc(C(=O)O)c1	-0.105
CCOCCN1CCN(c2c(C)c(C)nc3cc(-c4cc(OC)cc(OC)c4)nn23)CC1	-0.826
CN(C)/C=C1\C(=O)N(c2ccc(Cl)cc2)CS1(=O)=O	-0.082

SMILES	z-score
CC1CCN(C(=O)CN2C(=O)C(=O)c3ccccc32)CC1	1.18
CCN(CC)CC(C)OC(=O)c1cc(OC)c(OC)c(OC)c1 (configuration not stated)	-0.125
CCOC(=O)c1sc(NC(=O)c2cccnc2)c(C#N)c1C	-0.375
CN(C)C(CNC(=S)Nc1ccccc1)c1cccnc1 (configuration not stated)	-0.114
CC(C)(C)OC(=O)NCCc1nnc(SCc2ccc(Cl)cc2)o1	-0.444
O=S(=O)(Nc1nc2ccccc2[nH]1)c1ccc2ccccc2c1	-0.228
CCOC(=O)c1[nH]c(C)c(C(=O)c2cc(F)ccc2F)c1C	-0.561
COc1cc(NC(=O)CS(=O)(=O)c2ccccc2)cc(OC)c1OC	1.2
O=C(Nc1nccs1)C1CCCN1S(=O)(=O)c1ccc(F)cc1 (configuration not stated)	-0.318
CCC(C)C1NC(=S)N(Cc2ccccc2)C1=O (configuration not stated)	-0.14
Cc1cc(C)c(S(=O)(=O)NCCC2CCCN2C)c(C)c1 (configuration not stated)	-0.112
O=c1ncn(-c2ccc(F)cc2)c2ncccc12	-0.146
O=C(O)c1ccc(COc2ccccc2[N+](=O)[O-])o1	-0.128
Cc1snc(S(=O)(=O)/C(C#N)=N/Nc2ccc(C(F)(F)F)cc2)c1C#N	-1.22
CCOC(=O)c1ccc(NC(=O)C(=O)NCc2ccncc2)cc1	0.121
CC1CCN(C(=O)COC(=O)c2cc(Cl)cc(Cl)c2N)CC1	-0.0469
CC(C(=O)NCc1ccccc1)N1C(=O)C2CC=C(Cl)CC2C1=O (configuration not stated)	0.303
c1ccc(-c2noc(COc3ccc4c(c3)OCO4)n2)cc1	0.0125
CC(=O)c1ccc(OCCN2CCOCC2)cc1	-0.117
O=C(CSc1ncnc2c1cnn2CCc1ccccc1)Nc1ccc(F)cc1	0.129
COc1cc(/C=C2\SC(N3CCc4ccccc4C3)=NC2=O)cc(OC)c1OC	-0.793
CCC(NC(=O)Nn1cnnc1)(C(F)(F)F)C(F)(F)F	0.315
Cc1cccc(N2C(=O)CC(N3CCC(c4nc5ccccc5[nH]4)CC3)C2=O)c1 (configuration not stated)	-0.364

SMILES	z-score
CC(C)(CS(=O)(=O)[O-])NC(=O)CC[N+](C)(C)CCO	0.287
O=C(CSc1nc(-c2ccccc2)cs1)Nc1ccccc1[N+](=O)[O-]	-0.0875
CCCOc1ccc(C(=O)NCc2ccco2)cc1	-0.392
COc1cc2c(cc1NC(=O)Nc1cccc(C)c1)oc1ccccc12	2.68
CCc1c(C(=O)OC)nnc2cc(C)nn12	-0.267
CN(C)CCC#CC(O)(c1ccccc1)c1ccccc1	-0.348
C=CCn1c(O)c(N=NC(=O)c2ccc3c(c2)OCO3)c2ccccc21	0.105
CCCOc1ccc(-c2cnc(SCC(N)=O)nc2N)cc1	0.0622
NS(=O)(=O)c1ccc(CCNc2nc(CN3CCCCC3)nc3sc4c(c23)CCC4)cc1	0.0511
COc1ccc(-n2cnc3ccccc32)cc1	0.277
O=C(/C=C/c1ccco1)N1CCN(C/C=C/c2ccccc2)CC1	-0.35
C1=CC2CCC1ON2c1ccccc1 (configuration not stated)	-0.0185
O=S(=O)(NCCOCC(F)(F)F)c1ccc2oc3ccccc3c2c1	0.57
Cc1ccc(C)c(-n2c(CNC(=O)c3ccco3)nnc2SCC(=O)Nc2nnc(C)s2)c1	-0.524
O=C(Nc1nc2ccccc2s1)C1CC(=O)N(c2ccc(Cl)cc2)C1 (configuration not stated)	0.049
COC(=O)CSc1nnc(C)n1-c1cccc(C#N)c1	-0.0426
CCOc1ccc(CCNC(=O)Cn2cccc2C(=O)c2ccccc2C)cc1OCC	-0.299
Cn1cnnc1Sc1cc(N2CCN(S(=O)(=O)c3ccc(Cl)c(Cl)c3)CC2)ccc1[N+](=O)[O-]	0.518
Cc1ccc(CNC(=O)CN2CCN(Cc3ccc(C)cc3)C2=O)cc1	-1.28
Cc1ccc(C)c(OCCn2cc(/C=C(\C#N)C(=O)NCC3CCCO3)c3ccccc32)c1 (configuration not stated)	0.314
CCn1c2ccccc2c2cc(NC(=O)C/C(C)=N/NC(=O)c3ccccc3N)ccc21	-0.0756
C=C(C)COc1ccc(-c2n[nH]c(C)c2-c2ccccc2)c(O)c1	0.924
N#CCCN(C(=O)CN1C(=O)NC2(CCCC2)C1=O)c1ccccc1F	-0.195

SMILES	z-score
O=C1CCC(=O)c2oc3ccccc3c2N1	-0.303
Cc1cccc(OCC(=O)OC2CCN(C)CC2)c1	0.237
CCOc1nc(NCCO)nc(Nc2ccc([N+](=O)[O-])cc2)n1	-0.104
Cc1c(NC(=O)CN2C(=O)c3ccccc3C2=O)c(=O)n(-c2ccccc2)n1C	-0.51
c1ccc(Sc2cnc3ccccc3n2)cc1	0.183
CCc1ccc(NS(=O)(=O)c2ccc(OC)c(C)c2)cc1	-0.118
O=C(CCCSc1nc2ccccc2[nH]1)N1CCN(c2ccc([N+](=O)[O-])cc2)CC1	-0.0483
O=c1cc(-c2ccccc2)nc2nc[nH]n12	-0.502
CCN(CC)S(=O)(=O)c1ccc(NC(=O)C(C)N(c2ccc(OC)cc2)S(C)(=O)=O)cc1 (configuration not stated)	-0.182
CC(C)CCSc1nc(N)c(C#N)cc1C#N	-0.591
COc1ccc(Cn2c(SCc3ccc(C)cc3)nc3cc(OC)c(OC)cc3c2=N)cc1Cl	-0.112
N/N=c1\sc2ccccc2n1-c1ccccc1	0.118
O=C(Nc1cccnc1)c1cccnc1Cl	0.0677
Cc1ccc(-c2ccccc2NC(=O)CCl)o1	-0.0953
O=C(OCCNc1ncc(C(F)(F)F)cc1Cl)c1ccc(S(=O)(=O)N2CCOCC2)cc1	0.258
N#CCCN1CCN(C(=S)c2ccc(-c3ccc(Cl)cc3)o2)CC1	0.291
Cc1ccc(-c2n[nH]c(=S)n2/N=C/c2cccs2)cc1	2.22
O=[N+]([O-])c1ccc(Cl)cc1Sc1nc2ccccc2o1	-0.37
CS/C(N)=N/N=C/c1ccc([N+](=O)[O-])cc1	-0.414
CCOc1nc(OCC)nc(N2CCC(C)CC2)n1	-0.578
C/C(=N\NC(=O)CN1CCOCC1)C(C)(C)C	0.0872
COc1ccc(Cc2nnc(NC(=O)Cn3cnc4c3c(=O)n(C)c(=O)n4C)s2)cc1	-0.441
COc1ccc(-c2nc(NC(=O)c3n[nH]c(=O)c4ccccc34)sc2C)cc1	-0.088

SMILES	z-score
CCc1ccc(OCC(=O)N/N=C(\C)c2ccc(-n3ccnc3)cc2)cc1	-0.476
CSc1ccc(-c2c(C#N)c(N)nc3c2c(C)nn3-c2ccccc2)cc1	0.109
Cc1nn(-c2cc(C)c3ccccc3n2)c2c1CCC2	0.557
COc1cccc(/C=N/NC(=O)CCc2c(C)n[nH]c2C)c1	-0.423
O=C(CSc1nnc(-c2ccc(Cl)cc2Cl)n1C1CCCCC1)N1CCCC1	-0.796
CCC(=O)c1ccc(OCCN2CCOCC2)cc1	0.0439
CC1CCCC(C)N1Cc1cn2ccccc2n1 (configuration not stated)	0.482
COc1ccc(S(=O)(=O)N2CCCC(C(=O)Nc3cccc(C(C)=O)c3)C2)cc1 (configuration not stated)	-0.823
CC(C)(C)OC(=O)N1CCC[C@H]1c1nnc(SCc2ccccc2F)o1	-0.183
CCN(CC)S(=O)(=O)c1cccc(C(=O)OCC(=O)c2ccc3c(c2)NC(=O)CO3)c1	-0.586
Clc1ccc(-c2csc(N3CCN(c4ccccc4)CC3)n2)cc1	0.593
O=C(COc1ccccc1Br)NCc1ccccn1	-0.326
CCOC(=O)N1CCN(C(=O)c2ccccc2NC(=O)c2ccc(C(C)(C)C)cc2)CC1	-0.448
O=C(O)c1ccc(NS(=O)(=O)c2cc(Cl)ccc2Cl)cc1	-0.151
CC(C)(C)NCCCCOc1ccc(F)cc1	2.98
CC(=O)Nc1ccc(S(=O)(=O)NC2=C(N3CCN(Cc4ccccc4)CC3)C(=O)c3ccccc3C2=O)cc1	-0.0575
O=C(CCl)Nc1cc(S(=O)(=O)N2CCCCCC2)ccc1Cl	-0.171
COCC(C)n1c(C)cc(C(=O)COC(=O)c2ccc3c(c2)NC(=O)CS3)c1C (configuration not stated)	-0.13
Cc1ccsc1/C=N/NC(=O)CSCc1ccc(Cl)cc1	1.84
O=C(COc1ccccc1)N/N=C/c1cc2c(cc1[N+](=O)[O-])OCO2	-0.205
